Assay results as given in PMC4336329 (PLoS ONE, 2015).
About 14,000 (4.5%) of roughly 310,000 compounds showed an effect of 50% or more. The effect is printed as a negative number. The list shows a part of the results.

molecular target: human ether-à-go-go-related gene (hERG) potassium channel (human, UniProt Q12809); assay: primary screen, population patch clamp on CHO cells stably expressing hERG
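Note: peak tail current of the secondary pulse compared with the same well before compound.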

human ether-à-go-go-related gene (hERG) potassium channel, sequence (Q12809 whole entry, looked up): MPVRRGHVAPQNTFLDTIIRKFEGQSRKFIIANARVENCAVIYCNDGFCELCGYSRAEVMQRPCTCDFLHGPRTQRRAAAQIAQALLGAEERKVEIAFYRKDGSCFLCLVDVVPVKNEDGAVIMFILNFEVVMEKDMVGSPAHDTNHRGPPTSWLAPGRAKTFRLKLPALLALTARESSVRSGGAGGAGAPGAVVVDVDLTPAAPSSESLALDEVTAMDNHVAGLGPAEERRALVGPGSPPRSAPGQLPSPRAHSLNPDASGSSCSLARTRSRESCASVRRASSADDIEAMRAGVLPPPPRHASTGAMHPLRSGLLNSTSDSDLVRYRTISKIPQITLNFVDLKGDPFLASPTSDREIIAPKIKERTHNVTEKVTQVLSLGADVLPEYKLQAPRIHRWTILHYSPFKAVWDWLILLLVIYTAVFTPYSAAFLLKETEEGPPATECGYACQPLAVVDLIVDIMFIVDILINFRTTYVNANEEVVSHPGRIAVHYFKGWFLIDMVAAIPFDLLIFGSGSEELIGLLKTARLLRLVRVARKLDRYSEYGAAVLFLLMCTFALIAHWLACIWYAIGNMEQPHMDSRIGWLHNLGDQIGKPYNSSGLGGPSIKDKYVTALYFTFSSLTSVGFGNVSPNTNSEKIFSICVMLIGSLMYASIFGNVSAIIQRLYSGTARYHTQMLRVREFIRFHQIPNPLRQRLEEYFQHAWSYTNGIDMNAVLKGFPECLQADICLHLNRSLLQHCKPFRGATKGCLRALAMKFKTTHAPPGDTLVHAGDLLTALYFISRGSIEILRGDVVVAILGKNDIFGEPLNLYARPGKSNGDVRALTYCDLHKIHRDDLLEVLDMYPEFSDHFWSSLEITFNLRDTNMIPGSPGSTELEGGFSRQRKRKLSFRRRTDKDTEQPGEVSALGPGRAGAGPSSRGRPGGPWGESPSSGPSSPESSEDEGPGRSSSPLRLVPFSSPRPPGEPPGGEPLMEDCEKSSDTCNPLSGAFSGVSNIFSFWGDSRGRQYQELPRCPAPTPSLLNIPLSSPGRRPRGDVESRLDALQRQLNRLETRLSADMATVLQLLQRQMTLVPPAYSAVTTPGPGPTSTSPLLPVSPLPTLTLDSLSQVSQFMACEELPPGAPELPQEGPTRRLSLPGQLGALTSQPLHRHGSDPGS

SMILES | hERG current change (%, negative = inhibition) at 10uM
Cc1ccc(CNC(=O)CN(c2ccc(C)cc2)S(=O)(=O)c2c(C)nn(C)c2C)cc1 | -0.614%
NS(=O)(=O)c1ccc(NC(=S)NC2CCCCCC2)cc1 | 12.4%
CC1CCc2cc(F)cc3c(O)c(C(=O)NCCN(C)C)c(=O)n1c23.Cl (centres unmarked) | -1%
Cc1nc2ccccc2n1CCc1nc2c3ccccc3nc(SCC(=O)NCc3ccco3)n2n1 | -60%
CCC(C(=O)NC1CC(C)(C)NC(C)(C)C1)c1ccccc1 (centres unmarked) | 7.18%
CC(C)=NNC(=O)c1c(O)c2ccccc2[nH]c1=O | -20%
Cc1cc(OCC(=O)OCC(=O)N2CCc3ccccc32)ccc1Cl | 15.9%
C=CCn1c(NC(=O)c2ccccc2Cl)c(C#N)c2nc3ccccc3nc21 | -13.2%
Cn1c(CC(=O)Nc2ccc(F)cc2)nnc1SCC(=O)Nc1nncs1 | 17.6%
O=C(CN1C(=O)NC2(CCCC2)C1=O)N1CCN(S(=O)(=O)c2cc(Cl)ccc2Cl)CC1 | -20.8%
COc1ccc(CCN(C)C(=O)c2ccc(S(=O)(=O)Nc3ccccc3C)cc2)cc1OC | -3.26%
CCn1nc(C)c(NC(=O)CCSc2nc(-c3ccco3)cc(C(F)(F)F)n2)c1C | -13.8%
CCn1c2ccccc2c2cc(NC(=O)C(C)Oc3ccccc3)ccc21 (centres unmarked) | -6.52%
CC(=O)c1ccc(N2CCN(C(=O)CN3C(=O)NC4(CCCCC4)C3=O)CC2)c(F)c1 | 0.416%
O=C(NC(=S)Nc1ccc2nc[nH]c2c1)c1ccccc1 | 12.4%
O=C(NCCCN1CCCC1=O)Nc1ccccc1Cl | 15%
COc1ccc(CCNc2nc(-c3ccc(F)cc3)c(CC(=O)O)s2)cc1OC | 6.64%
CS(=O)(=O)Nc1ccc(C2=NN(C(=O)c3ccco3)C(c3cccc(F)c3)C2)cc1 (centres unmarked) | -78.3%
Cc1ccc2nc(NC(=O)c3ccc(-c4nc5ccccc5s4)s3)sc2c1 | 0.614%
Cn1c(Cc2ccccc2)nnc1SCc1cc(=O)n2ccsc2n1 | 35.1%
C[C@@H](C(=O)NC1CCCCC1)N1C(=O)N2CCc3c([nH]c4ccccc34)[C@@]2(C)C1=O | -20.7%
CC1=NN(c2ccc(Cl)c(C(=O)O)c2)C(=O)C1 | 1.19%

SMILES | hERG current change (%, negative = inhibition) at 10uM
Cc1ccc(S(=O)(=O)N2CCN(C(=O)c3ccc4nc[nH]c4c3)CC2)cc1 | -0.239%
COc1ccccc1NC(=O)CC(=O)Nc1ccccc1OC | 6.01%
Cc1cccc(N(Cc2ccc(Cl)cc2)S(C)(=O)=O)c1 | 21.1%
O=C(CNC(=S)N(CCCN1CCOCC1)Cc1cccs1)NC1CCCC1 | -19.7%
O=c1c2ccccc2nc(SCc2nc3ccccc3s2)n1CCCO | -4.88%
Cc1ccc(C(=O)NCC(=O)OCC(=O)c2cc(C)n(Cc3ccco3)c2C)cc1 | -12.1%
CC1COc2ccccc2N1C(=O)c1ccc(Cl)cc1 (centres unmarked) | 15.7%
O=C(CSc1ncc(C(F)(F)F)cc1Cl)N1CCN(S(=O)(=O)c2ccccc2)CC1 | -32.7%
C/C(Cl)=C/Cn1c(SCCN2CCOCC2)nc2c1c(=O)[nH]c(=O)n2C | -64.6%
Cc1ccc(S(=O)(=O)N(C)c2ccccc2)cc1 | -11.8%
O=C(COC(=O)c1ccccc1Br)Nc1ccc2[nH]c(=O)[nH]c2c1 | -2.99%
Cc1sc2ncnc(N3CCC(C(=O)Nc4ccc(C#N)c(Cl)c4)CC3)c2c1C | -7.2%
COCCn1cnc2c1c(=O)n(Cc1cc(C(C)=O)ccc1OC)c(=O)n2Cc1ccccc1 | -30.8%
COc1ccccc1-n1c(O)c(C=NC2CC2)c(=O)[nH]c1=O | -8.21%
C=CCN(CC=C)CC(=O)Nc1ccc(S(N)(=O)=O)cc1 | -9.56%
Cc1nn(CCC(=O)NNC(=S)Nc2ccc([N+](=O)[O-])cc2)c(C)c1[N+](=O)[O-] | -27.4%
N#CC1=C(S)N(c2ccccc2)C(c2ccco2)NC1=O (centres unmarked) | 14.3%
O=C(CSc1nc2c(c(=O)n1-c1ccc(Br)cc1)SCC2)NCC1CCCO1 (centres unmarked) | -60.9%
Cc1ccc(-n2c(SCC(N)=O)nc(O)cc2=O)cc1 | 23%
c1ccc(-c2nc3cc4ccccc4cc3[nH]2)nc1 | 8.33%
CC(=O)c1cccc(CN2CCCC(CCC(=O)NCc3ccccc3F)C2)c1 (centres unmarked) | -48.5%
CCn1c(CNC(=O)c2cccnc2)cc2ccccc21 | 2.41%
